# Laboratory results taken from the supplement of paper PMC8728848.
# This is one part of the list.
# B1: Surfactant Protein D (Human); Neck + Carbohydrate Recognition Domain (NCRD) (Homo sapiens) (protein)
# chain: MLLFLLSALVLLTQPLGYLEAEMKTYSHRTMPSACTLVMCSSVESGLPGRDRDGREGPRGEKGDPGLPGAAGQAGMPGQAGPVGPKGDNGSVGEPGPKGDTGPSGPPGPPGVPGPAGREGALGKQGNIGPQGKPGPKGEAGPKGEVGAPGMQGSAGARGLAGPKGERGVPGERGVPGNTGAAGSAGAMGPQGSPGARGPPGLKGDKGIPGDKGAKGESGLPDVASLRQQVEALQGQVQHLQAAFSQYKKVELFPNGQSVGEKIFKTAQFVKPFTEAQLLCTQAGGQLASPRSAAENAALQQLVVAKNEAAFLSMTDSKTEGKFTYPTGESLVYSNWAPGEPNDDGGSEDCVEIFTNGKWNDRACGEKRLVVCEA
# Legend:
# Assay in all cases: glycan array binding signal (z-score within array); higher = stronger binding
# Conditions in all cases: glycan notation: IUPAC condensed, linker removed; mutation: F355A
# [1] = biological target: Gal(b1-4)GlcNAc(b1-3)Gal(b1-4)GlcNAc(b1-3)Gal(b1-4)GlcNAc
# Procedure, shortened: (§1)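 Columns mapping to the same glycan were averaged after glycan names were converted to IUPAC-condensed notation. The data come from 3228 arrays in the Consortium for Functional Glycomics database, limited to those with an available protein sequence. Binding is reported as a within-array Z-score averaged across arrays of one protein sequence and across linkers.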
# [2] = biological target: Gal(b1-4)GlcNAc(b1-3)Gal(b1-4)[Fuc(a1-3)]GlcNAc(b1-3)Gal(b1-4)[Fuc(a1-3)]GlcNAc
# Procedure, shortened: as §1
# [3] = biological target: Gal(b1-4)GlcNAc(b1-3)GalNAc
# Procedure, shortened: as §1
# [4] = biological target: Gal(b1-4)GlcNAc(b1-3)[Gal(b1-4)GlcNAc(b1-6)]Gal(b1-4)GlcNAc
# Procedure, shortened: as §1
# [5] = biological target: Gal(b1-4)GlcNAc(b1-3)[GlcNAc(b1-6)]Gal(b1-4)GlcNAc
# Procedure, shortened: as §1
# [6] = biological target: Gal(b1-4)GlcNAc(b1-6)Gal(b1-4)GlcNAc
# Procedure, shortened: as §1
# [7] = biological target: Gal(b1-4)GlcNAc(b1-6)Gal(b1-4)GlcNAc(b1-6)GalNAc
# Procedure, shortened: as §1
# [8] = biological target: Gal(b1-4)GlcNAc(b1-6)GalNAc
# Procedure, shortened: as §1
# [9] = biological target: Gal(b1-4)GlcNAc(b1-6)[Gal(b1-3)]GalNAc
# Procedure, shortened: as §1
# [10] = biological target: Gal3S(b1-3)GalNAc
# Procedure, shortened: as §1
# [11] = biological target: Gal3S(b1-3)GlcNAc
# Procedure, shortened: as §1
# [12] = biological target: Gal3S(b1-3)[Fuc(a1-4)]GlcNAc
# Procedure, shortened: as §1
# [13] = biological target: Gal3S(b1-4)Glc
# Procedure, shortened: as §1
# [14] = biological target: Gal3S(b1-4)Glc6S
# Procedure, shortened: as §1
# [15] = biological target: Gal3S(b1-4)GlcNAc
# Procedure, shortened: as §1
# [16] = biological target: Gal3S(b1-4)GlcNAc6S
# Procedure, shortened: as §1
# [17] = biological target: Gal3S(b1-4)[Fuc(a1-3)]Glc
# Procedure, shortened: as §1
# [18] = biological target: Gal3S4S(b1-4)GlcNAc
# Procedure, shortened: as §1
# [19] = biological target: Gal3S6S(b1-4)GlcNAc
# Procedure, shortened: as §1
# [20] = biological target: Gal3S6S(b1-4)GlcNAc6S
# Procedure, shortened: as §1
# [21] = biological target: Gal4S(b1-4)GlcNAc
# Procedure, shortened: as §1
# [22] = biological target: Gal4S6S(b1-4)GlcNAc
# Procedure, shortened: as §1
# [23] = biological target: Gal6S(b1-4)Glc
# Procedure, shortened: as §1
# [24] = biological target: Gal6S(b1-4)Glc6S
# Procedure, shortened: as §1
# [25] = biological target: Gal6S(b1-4)GlcNAc
# Procedure, shortened: as §1
# [26] = biological target: Gal6S(b1-4)GlcNAc6S
# Procedure, shortened: as §1
# [27] = biological target: GalNAc(a1-3)Gal
# Procedure, shortened: as §1
# [28] = biological target: GalNAc(a1-3)GalNAc
# Procedure, shortened: as §1
# [29] = biological target: GalNAc(b1-3)Gal
# Procedure, shortened: as §1
# [30] = biological target: GalNAc(b1-3)Gal(a1-4)Gal(b1-4)GlcNAc
# Procedure, shortened: as §1
# [31] = biological target: GalNAc(b1-3)GalNAc
# Procedure, shortened: as §1
# [32] = biological target: GalNAc(b1-4)GlcNAc
# Procedure, shortened: as §1
# [33] = biological target: Glc(a1-4)Glc
# Procedure, shortened: as §1
# [34] = biological target: Glc(a1-6)Glc(a1-6)Glc
# Procedure, shortened: as §1
# [35] = biological target: Glc(b1-4)Glc
# Procedure, shortened: as §1
# [36] = biological target: Glc(b1-6)Glc
# Procedure, shortened: as §1
# [37] = biological target: GlcA(b1-3)Gal
# Procedure, shortened: as §1
# [38] = biological target: GlcA(b1-3)GlcNAc
# Procedure, shortened: as §1
# [39] = biological target: GlcA(b1-6)Gal
# Procedure, shortened: as §1
# [40] = biological target: GlcNAc(a1-3)Gal(b1-4)GlcNAc
# Procedure, shortened: as §1
# [41] = biological target: GlcNAc(a1-6)Gal(b1-4)GlcNAc
# Procedure, shortened: as §1
# [42] = biological target: GlcNAc(b1-2)Gal(b1-3)GalNAc
# Procedure, shortened: as §1
# [43] = biological target: GlcNAc(b1-2)Man(a1-3)[GlcNAc(b1-2)Man(a1-6)]Man(b1-4)GlcNAc(b1-4)GlcNAc
# Procedure, shortened: as §1
# [44] = biological target: GlcNAc(b1-3)Gal
# Procedure, shortened: as §1
# [45] = biological target: GlcNAc(b1-3)Gal(b1-3)GalNAc
# Procedure, shortened: as §1
# [46] = biological target: GlcNAc(b1-3)Gal(b1-4)Glc
# Procedure, shortened: as §1
# [47] = biological target: GlcNAc(b1-3)Gal(b1-4)GlcNAc
# Procedure, shortened: as §1
# [48] = biological target: GlcNAc(b1-3)Gal(b1-4)GlcNAc(b1-3)Gal(b1-4)GlcNAc
# Procedure, shortened: as §1
# [49] = biological target: GlcNAc(b1-3)GalNAc
# Procedure, shortened: as §1
# [50] = biological target: GlcNAc(b1-3)Man
# Procedure, shortened: as §1
# [51] = biological target: GlcNAc(b1-3)[GlcNAc(b1-4)][GlcNAc(b1-6)]GlcNAc
# Procedure, shortened: as §1
# [52] = biological target: GlcNAc(b1-3)[GlcNAc(b1-6)]Gal(b1-4)GlcNAc
# Procedure, shortened: as §1
# [53] = biological target: GlcNAc(b1-3)[GlcNAc(b1-6)]GalNAc
# Procedure, shortened: as §1
# [54] = biological target: GlcNAc(b1-4)Gal(b1-4)GlcNAc
# Procedure, shortened: as §1
# [55] = biological target: GlcNAc(b1-4)GlcNAc
# Procedure, shortened: as §1
# [56] = biological target: GlcNAc(b1-4)GlcNAc(b1-4)GlcNAc
# Procedure, shortened: as §1
# [57] = biological target: GlcNAc(b1-4)GlcNAc(b1-4)GlcNAc(b1-4)GlcNAc(b1-4)GlcNAc
# Procedure, shortened: as §1
# [58] = biological target: GlcNAc(b1-4)GlcNAc(b1-4)GlcNAc(b1-4)GlcNAc(b1-4)GlcNAc(b1-4)GlcNAc
# Procedure, shortened: as §1
# [59] = biological target: GlcNAc(b1-4)[GlcNAc(b1-6)]GalNAc
# Procedure, shortened: as §1
# [60] = biological target: GlcNAc(b1-6)Gal(b1-4)GlcNAc
# Procedure, shortened: as §1
# [61] = biological target: GlcNAc(b1-6)GalNAc
# Procedure, shortened: as §1
# [62] = biological target: GlcNAc3Prop(b1-4)GlcNAc
# Procedure, shortened: as §1
# [63] = biological target: Kdn(a2-3)Gal(b1-3)GlcNAc
# Procedure, shortened: as §1
# [64] = biological target: Kdn(a2-3)Gal(b1-4)GlcNAc
# Procedure, shortened: as §1
# [65] = biological target: Man(a1-2)Man(a1-2)Man(a1-3)Man
# Procedure, shortened: as §1
# [66] = biological target: Man(a1-2)Man(a1-2)Man(a1-6)[Man(a1-3)]Man
# Procedure, shortened: as §1
# [67] = biological target: Man(a1-2)Man(a1-3)Man
# Procedure, shortened: as §1
# [68] = biological target: Man(a1-2)Man(a1-3)[Man(a1-2)Man(a1-6)]Man
# Procedure, shortened: as §1
# [69] = biological target: Man(a1-2)Man(a1-3)[Man(a1-2)Man(a1-6)]Man(a1-6)[Man(a1-2)Man(a1-2)Man(a1-3)]Man
# Procedure, shortened: as §1
# [70] = biological target: Man(a1-2)Man(a1-3)[Man(a1-2)Man(a1-6)]Man(a1-6)[Man(a1-2)Man(a1-2)Man(a1-3)]Man(b1-4)GlcNAc(b1-4)GlcNAc
# Procedure, shortened: as §1
# [71] = biological target: Man(a1-2)Man(a1-3)[Man(a1-6)]Man(a1-6)[Man(a1-2)Man(a1-3)]Man(b1-4)GlcNAc(b1-4)GlcNAc
# Procedure, shortened: as §1
# [72] = biological target: Man(a1-2)Man(a1-6)[Man(a1-3)]Man(a1-6)[Man(a1-2)Man(a1-2)Man(a1-3)]Man
# Procedure, shortened: as §1
# [73] = biological target: Man(a1-2)Man(a1-6)[Man(a1-3)]Man(a1-6)[Man(a1-2)Man(a1-2)Man(a1-3)]Man(b1-4)GlcNAc(b1-4)GlcNAc
# Procedure, shortened: as §1
# [74] = biological target: Man(a1-3)[Man(a1-6)]Man
# Procedure, shortened: as §1
binder,measurement,setting,value
B1,glycan array binding signal (z-score),[1],-0.155
same,glycan array binding signal (z-score),[2],-0.101
same,glycan array binding signal (z-score),[3],0.001
same,glycan array binding signal (z-score),[4],-0.183
same,glycan array binding signal (z-score),[5],-0.067
same,glycan array binding signal (z-score),[6],-0.113
same,glycan array binding signal (z-score),[7],-0.126
same,glycan array binding signal (z-score),[8],-0.142
same,glycan array binding signal (z-score),[9],-0.084
same,glycan array binding signal (z-score),[10],-0.139
same,glycan array binding signal (z-score),[11],-0.163
same,glycan array binding signal (z-score),[12],-0.152
same,glycan array binding signal (z-score),[13],-0.149
same,glycan array binding signal (z-score),[14],-0.147
same,glycan array binding signal (z-score),[15],-0.136
same,glycan array binding signal (z-score),[16],-0.121
same,glycan array binding signal (z-score),[17],-0.143
same,glycan array binding signal (z-score),[18],-0.108
same,glycan array binding signal (z-score),[19],-0.123
same,glycan array binding signal (z-score),[20],-0.155
same,glycan array binding signal (z-score),[21],-0.12
same,glycan array binding signal (z-score),[22],-0.139
same,glycan array binding signal (z-score),[23],-0.114
same,glycan array binding signal (z-score),[24],0.032
same,glycan array binding signal (z-score),[25],-0.137
same,glycan array binding signal (z-score),[26],-0.134
same,glycan array binding signal (z-score),[27],-0.13
same,glycan array binding signal (z-score),[28],-0.065
same,glycan array binding signal (z-score),[29],-0.12
same,glycan array binding signal (z-score),[30],-0.138
same,glycan array binding signal (z-score),[31],-0.143
same,glycan array binding signal (z-score),[32],-0.141
same,glycan array binding signal (z-score),[33],-0.13
same,glycan array binding signal (z-score),[34],-0.16
same,glycan array binding signal (z-score),[35],-0.129
same,glycan array binding signal (z-score),[36],-0.155
same,glycan array binding signal (z-score),[37],-0.135
same,glycan array binding signal (z-score),[38],-0.013
same,glycan array binding signal (z-score),[39],-0.126
same,glycan array binding signal (z-score),[40],-0.13
same,glycan array binding signal (z-score),[41],-0.164
same,glycan array binding signal (z-score),[42],-0.138
same,glycan array binding signal (z-score),[43],-0.127
same,glycan array binding signal (z-score),[44],-0.15
same,glycan array binding signal (z-score),[45],-0.131
same,glycan array binding signal (z-score),[46],-0.147
same,glycan array binding signal (z-score),[47],-0.146
same,glycan array binding signal (z-score),[48],-0.138
same,glycan array binding signal (z-score),[49],-0.136
same,glycan array binding signal (z-score),[50],-0.154
same,glycan array binding signal (z-score),[51],-0.118
same,glycan array binding signal (z-score),[52],-0.142
same,glycan array binding signal (z-score),[53],-0.099
same,glycan array binding signal (z-score),[54],-0.146
same,glycan array binding signal (z-score),[55],-0.115
same,glycan array binding signal (z-score),[56],-0.155
same,glycan array binding signal (z-score),[57],-0.122
same,glycan array binding signal (z-score),[58],-0.146
same,glycan array binding signal (z-score),[59],-0.124
same,glycan array binding signal (z-score),[60],-0.114
same,glycan array binding signal (z-score),[61],-0.153
same,glycan array binding signal (z-score),[62],-0.098
same,glycan array binding signal (z-score),[63],-0.133
same,glycan array binding signal (z-score),[64],-0.072
same,glycan array binding signal (z-score),[65],0.779
same,glycan array binding signal (z-score),[66],2.74
same,glycan array binding signal (z-score),[67],-0.159
same,glycan array binding signal (z-score),[68],4.68
same,glycan array binding signal (z-score),[69],15
same,glycan array binding signal (z-score),[70],-0.132
same,glycan array binding signal (z-score),[71],0.902
same,glycan array binding signal (z-score),[72],1.29
same,glycan array binding signal (z-score),[73],1.59
same,glycan array binding signal (z-score),[74],-0.064
